Measured values taken from the CheMixHub viscosity set.
“And” between values parts separate entries of the source, which are not always exact repeats. Equal entries are not always repeated. This continues a long series; more values of the same kind are listed elsewhere.

Experiment: xn = mol fraction of the nth substance listed

CO + O
Details	viscosity
308.15 K, 101 kPa, x1 = 0.69	0.872 mPa·s
308.15 K, 101 kPa, x1 = 0.7522	0.7684 mPa·s
308.15 K, 101 kPa, x1 = 0.83	0.673 mPa·s
308.15 K, 101.3 kPa, x1 = 0.4576	1.098 mPa·s
308.15 K, 101.3 kPa, x1 = 0.5675	0.974 mPa·s
308.15 K, 101.3 kPa, x1 = 0.6922	0.829 mPa·s
308.15 K, 101.3 kPa, x1 = 0.835	0.667 mPa·s
308.15 K, 101.3 kPa, x1 = 0.9144	0.566 mPa·s
313.15 K, 101 kPa, x1 = 0.024	0.7156 mPa·s
313.15 K, 101 kPa, x1 = 0.059	0.793 mPa·s
313.15 K, 101 kPa, x1 = 0.0597	0.7907 mPa·s
313.15 K, 101 kPa, x1 = 0.0909	0.8594 mPa·s
313.15 K, 101 kPa, x1 = 0.0927	0.8699 mPa·s
313.15 K, 101 kPa, x1 = 0.12	0.902 mPa·s
313.15 K, 101 kPa, x1 = 0.128	0.9553 mPa·s
313.15 K, 101 kPa, x1 = 0.1662	0.9879 mPa·s
313.15 K, 101 kPa, x1 = 0.19	0.989 mPa·s
313.15 K, 101 kPa, x1 = 0.1986	1.02 mPa·s
313.15 K, 101 kPa, x1 = 0.2086	1.06 mPa·s
313.15 K, 101 kPa, x1 = 0.2491	1.05 mPa·s
313.15 K, 101 kPa, x1 = 0.27	1.003 mPa·s
313.15 K, 101 kPa, x1 = 0.2841	1.052 mPa·s
313.15 K, 101 kPa, x1 = 0.3041	1.079 mPa·s
313.15 K, 101 kPa, x1 = 0.3084	1.049 mPa·s
313.15 K, 101 kPa, x1 = 0.36	1.045 mPa·s
313.15 K, 101 kPa, x1 = 0.3673	1.035 mPa·s
313.15 K, 101 kPa, x1 = 0.4203	0.9738 mPa·s
313.15 K, 101 kPa, x1 = 0.46	0.997 mPa·s
313.15 K, 101 kPa, x1 = 0.4752	0.9589 mPa·s
313.15 K, 101 kPa, x1 = 0.5235	0.9177 mPa·s
313.15 K, 101 kPa, x1 = 0.5657	0.8887 mPa·s
313.15 K, 101 kPa, x1 = 0.57	0.946 mPa·s
313.15 K, 101 kPa, x1 = 0.6735	0.7635 mPa·s
313.15 K, 101 kPa, x1 = 0.69	0.784 mPa·s
313.15 K, 101 kPa, x1 = 0.7522	0.702 mPa·s
313.15 K, 101 kPa, x1 = 0.8172	0.6182 mPa·s
313.15 K, 101 kPa, x1 = 0.83	0.6344 mPa·s and 0.62 mPa·s
313.15 K, 101 kPa, x1 = 0.92	0.5221 mPa·s
313.15 K, 101.3 kPa, x1 = 0.0588	0.8 mPa·s
313.15 K, 101.3 kPa, x1 = 0.1233	0.941 mPa·s
313.15 K, 101.3 kPa, x1 = 0.1943	1.034 mPa·s
313.15 K, 101.3 kPa, x1 = 0.2727	1.074 mPa·s
313.15 K, 101.3 kPa, x1 = 0.3599	1.046 mPa·s
313.15 K, 101.3 kPa, x1 = 0.4576	0.981 mPa·s
313.15 K, 101.3 kPa, x1 = 0.5675	0.876 mPa·s
313.15 K, 101.3 kPa, x1 = 0.6922	0.752 mPa·s
313.15 K, 101.3 kPa, x1 = 0.835	0.612 mPa·s
313.15 K, 101.3 kPa, x1 = 0.9144	0.532 mPa·s
313.15 K, 101.33 kPa, x1 = 0.0588	0.823 mPa·s
313.15 K, 101.33 kPa, x1 = 0.1119	0.858 mPa·s
313.15 K, 101.33 kPa, x1 = 0.123	0.96 mPa·s
313.15 K, 101.33 kPa, x1 = 0.194	1.064 mPa·s
313.15 K, 101.33 kPa, x1 = 0.273	1.091 mPa·s
313.15 K, 101.33 kPa, x1 = 0.2752	0.982 mPa·s
313.15 K, 101.33 kPa, x1 = 0.36	1.073 mPa·s
313.15 K, 101.33 kPa, x1 = 0.458	1.004 mPa·s
313.15 K, 101.33 kPa, x1 = 0.4607	0.965 mPa·s
313.15 K, 101.33 kPa, x1 = 0.692	0.769 mPa·s
313.15 K, 101.33 kPa, x1 = 0.6981	0.782 mPa·s
313.15 K, 101.33 kPa, x1 = 0.8322	0.629 mPa·s
313.21 K, 101.33 kPa, x1 = 0.0583	0.8215 mPa·s
313.21 K, 101.33 kPa, x1 = 0.1229	0.9519 mPa·s
313.21 K, 101.33 kPa, x1 = 0.1889	1.042 mPa·s
313.21 K, 101.33 kPa, x1 = 0.2719	1.085 mPa·s
313.21 K, 101.33 kPa, x1 = 0.3592	1.066 mPa·s
313.21 K, 101.33 kPa, x1 = 0.4571	0.9935 mPa·s
313.21 K, 101.33 kPa, x1 = 0.5663	0.893 mPa·s
313.21 K, 101.33 kPa, x1 = 0.6913	0.7637 mPa·s
313.21 K, 101.33 kPa, x1 = 0.8341	0.6146 mPa·s
318.15 K, 100 kPa, x1 = 0.047	0.708 mPa·s
318.15 K, 100 kPa, x1 = 0.159	0.902 mPa·s
318.15 K, 100 kPa, x1 = 0.306	1.026 mPa·s
318.15 K, 101 kPa, x1 = 0.0597	0.7095 mPa·s
318.15 K, 101 kPa, x1 = 0.128	0.8543 mPa·s
318.15 K, 101 kPa, x1 = 0.2086	0.9406 mPa·s
318.15 K, 101 kPa, x1 = 0.3041	0.9562 mPa·s
318.15 K, 101 kPa, x1 = 0.4203	0.8652 mPa·s
318.15 K, 101 kPa, x1 = 0.5657	0.8037 mPa·s
318.15 K, 101 kPa, x1 = 0.7522	0.6437 mPa·s
322.9 K, 101 kPa, x1 = 0.024	0.5963 mPa·s
322.9 K, 101 kPa, x1 = 0.0927	0.7026 mPa·s
322.9 K, 101 kPa, x1 = 0.1662	0.7891 mPa·s
322.9 K, 101 kPa, x1 = 0.1986	0.8121 mPa·s
322.9 K, 101 kPa, x1 = 0.2491	0.8349 mPa·s
322.9 K, 101 kPa, x1 = 0.2841	0.8383 mPa·s
322.9 K, 101 kPa, x1 = 0.3084	0.8384 mPa·s
322.9 K, 101 kPa, x1 = 0.4752	0.7745 mPa·s
322.9 K, 101 kPa, x1 = 0.5235	0.7463 mPa·s
322.9 K, 101 kPa, x1 = 0.6735	0.6347 mPa·s
322.9 K, 101 kPa, x1 = 0.8172	0.5267 mPa·s
322.9 K, 101 kPa, x1 = 0.92	0.4535 mPa·s
323.05 K, 101.33 kPa, x1 = 0.0583	0.6624 mPa·s
323.05 K, 101.33 kPa, x1 = 0.1229	0.763 mPa·s
323.05 K, 101.33 kPa, x1 = 0.2719	0.8647 mPa·s
323.05 K, 101.33 kPa, x1 = 0.3592	0.8553 mPa·s
323.05 K, 101.33 kPa, x1 = 0.5663	0.737 mPa·s
323.05 K, 101.33 kPa, x1 = 0.6913	0.6387 mPa·s
323.05 K, 101.33 kPa, x1 = 0.8341	0.527 mPa·s
323.1 K, 101.33 kPa, x1 = 0.4571	0.8034 mPa·s
323.15 K, 100 kPa, x1 = 0.15	0.7811 mPa·s
323.15 K, 100 kPa, x1 = 0.25	0.8375 mPa·s
323.15 K, 100 kPa, x1 = 0.3	0.8423 mPa·s
323.15 K, 100 kPa, x1 = 0.35	0.8335 mPa·s
323.15 K, 100 kPa, x1 = 0.5	0.7551 mPa·s
323.15 K, 100 kPa, x1 = 0.75	0.576 mPa·s
323.15 K, 101 kPa, x1 = 0.0597	0.6414 mPa·s
323.15 K, 101 kPa, x1 = 0.128	0.7673 mPa·s
323.15 K, 101 kPa, x1 = 0.2086	0.8412 mPa·s
323.15 K, 101 kPa, x1 = 0.3041	0.8546 mPa·s
323.15 K, 101 kPa, x1 = 0.4203	0.7757 mPa·s
323.15 K, 101 kPa, x1 = 0.5657	0.7305 mPa·s
323.15 K, 101 kPa, x1 = 0.7522	0.5916 mPa·s
323.15 K, 101.3 kPa, x1 = 0.0588	0.656 mPa·s
323.15 K, 101.3 kPa, x1 = 0.1233	0.759 mPa·s
323.15 K, 101.3 kPa, x1 = 0.1943	0.823 mPa·s
323.15 K, 101.3 kPa, x1 = 0.2727	0.854 mPa·s
323.15 K, 101.3 kPa, x1 = 0.3599	0.841 mPa·s
323.15 K, 101.3 kPa, x1 = 0.4576	0.795 mPa·s
323.15 K, 101.3 kPa, x1 = 0.5675	0.722 mPa·s
323.15 K, 101.3 kPa, x1 = 0.6922	0.63 mPa·s
323.15 K, 101.3 kPa, x1 = 0.835	0.522 mPa·s
323.15 K, 101.33 kPa, x1 = 0.0588	0.688 mPa·s
323.15 K, 101.33 kPa, x1 = 0.1119	0.744 mPa·s
323.15 K, 101.33 kPa, x1 = 0.123	0.788 mPa·s
323.15 K, 101.33 kPa, x1 = 0.194	0.867 mPa·s
323.15 K, 101.33 kPa, x1 = 0.273	0.884 mPa·s
323.15 K, 101.33 kPa, x1 = 0.2752	0.788 mPa·s
323.15 K, 101.33 kPa, x1 = 0.36	0.875 mPa·s
323.15 K, 101.33 kPa, x1 = 0.458	0.817 mPa·s
323.15 K, 101.33 kPa, x1 = 0.4607	0.77 mPa·s
323.15 K, 101.33 kPa, x1 = 0.692	0.65 mPa·s
323.15 K, 101.33 kPa, x1 = 0.6981	0.627 mPa·s
323.15 K, 101.33 kPa, x1 = 0.8322	0.539 mPa·s
